The values that follow come from publication PMC7905944 (Science signaling, 2020).

The data set concerns the molecule itself. Description: SDS-PAGE and western blot. In general terms: Immunoblotting shows a protein as a band on a membrane.

B1: endogenous LGR4 of OV90 cells (receptor)
chain: not shown
Turning to B1, the “stoichiometry N” value worked out at 2.

One may read the stoichiometry N as a count of units in the complex or per binding partner.
